Molecules are shown by their SMILES. About 1,700 (3.3%) of roughly 52,000 compounds were called active. No stated cut-off is given here; in the data, active means survival mostly below about 52% (no sharp cut-off); inactive means mostly above about 56%. This is one part of the list.

In the assay the test system is Wild type. Put plainly: S. aureus survival, RN4220 and DeltatarO strains – OD600, teichoic acid synthesis inhibitors, primary screen (AID 463173). The following applies: S. aureus RN4220 wild type/DeltatarO growth, OD600, 18 h, active compounds read low, screened at 18.75 µg/mL (by protocol).
On to `O=C(C1COc2cc(S(=O)(=O)Nc3ccc(Cl)cc3)ccc2O1)N1CCCC1` (stereo not given), for which the survival was inactive: 78%.

Take `Fc1ccc(-c2nnc(CN3CCN(c4ccccn4)CC3)o2)cc1`: the survival is inactive: 90%. To `COc1ccc(C(=O)c2cn(Cc3ccc(F)cc3)c3c(F)cc(F)cc3c2=O)cc1` belongs inactive: 133%; to `CCOC(=O)c1ccc(NC(=O)NC2CC3CCC(C2)N3C(=S)NCc2ccco2)cc1` (stereo not given), inactive: 112%. Under `O=C(NCc1ccco1)c1nc2c(nnn2Cc2cccc(Cl)c2)c(=O)[nH]1` stands inactive: 109%; under `O=C(Cn1ncc2c3ccccc3n(Cc3ccccc3)c2c1=O)NCc1ccccc1`, inactive: 90%; under `COC(=O)c1c(NC(=O)CCCOc2cccc(C)c2)sc2c1CCC(C)C2` (stereo not given), active: 4%. Take `CC(C)NS(=O)(=O)c1ccc(OCC(=O)N2CCN(c3cccc(Cl)c3)CC2)cc1`: the survival was inactive: 116%. `COc1cc(C2C(C(=O)Nc3ccccc3)=C(C)Nc3nc(SCC(=O)c4ccc(C)cc4)nn32)ccc1O` (stereo not given): the survival was inactive: 97%. In the case of `CCc1ccccc1N(C)C(=O)c1cc2c(s1)-c1c(C)cccc1OC2`, the survival is inactive: 69%. Consider `Cc1ccc(Cn2c(C)c(CNCc3ccccc3F)c(C(=O)O)c2C)cc1`, for which the survival is inactive: 92%. Under `COC(=O)c1cccc(S(=O)(=O)N2CCOCC2)c1` stands inactive: 115%; under `CCOC(=O)c1ccc(N2C(=O)c3n[nH]c(-c4ccco4)c3C2c2cccc(F)c2)cc1` (stereo not given), inactive: 13%. To `Cc1ccc(NC(=O)CSc2nc3ccc(NC(=O)c4cccc(Cl)c4)cc3s2)c(C)c1` belongs inactive: 87%; to `COc1ccccc1C(=O)Nc1ccc(-c2nc3cc(C)cc(C)c3o2)cc1`, inactive: 151%; to `CCc1ccc(S(=O)(=O)c2nnn3c2nc(N2CCN(CC)CC2)c2sccc23)cc1`, inactive: 88%. As for `O=C(Nc1ccc(F)cc1)N1CCCC(c2nc3c(nnn3Cc3ccccc3Cl)c(=O)[nH]2)C1` (stereo not given), the survival is inactive: 114%. Under `Cc1nc2sc(C)c(C)n2c(=O)c1S(=O)(=O)NCCc1ccc(Cl)cc1` stands inactive: 109%; under `O=C(C1CCCN(S(=O)(=O)c2cccs2)C1)N1CCN(c2ccccc2F)CC1` (stereo not given), inactive: 92%; under `CN1C(=O)c2ccccc2Sc2ccc(NC(=O)NCc3ccccc3Br)cc21`, inactive: 73%. As for `Cc1ccc(CN(Cc2cccn2-c2nnc(N3CCCC3=O)s2)C(=O)Nc2cc(C)cc(C)c2)cc1`, the survival is inactive: 123%. To `COc1ccc(-c2nc3c(c(SCC(=O)Nc4cc(C)cc(C)c4)n2)Cc2c(CO)cnc(C)c2O3)cc1` belongs inactive: 85%.

Consider `COc1cccc(CN2C(=O)C3(SCC(=O)N3c3ccc(F)cc3)c3ccccc32)c1` (stereo not given), for which the survival is inactive: 91%. To `O=C1c2ccccc2C(=O)N1c1ncn[nH]1` belongs inactive: 113%. On to `CCCNS(=O)(=O)c1ccc(CCC(=O)NCC2CCCO2)cc1` (stereo not given), for which the survival is inactive: 126%.

As for `Cc1ccc(CN(Cc2ccco2)C(=O)c2ccccc2Cl)o1`, the survival was inactive: 96%. As to `CCn1c(SC)nnc1C1CCCN(Cc2ccccc2)C1` (stereo not given), the survival is inactive: 109%. Under `O=C(NCc1cccc(Cl)c1)c1ccc2c(c1)nc1n2CCOC1` stands inactive: 71%; under `CC(=O)c1ccc(NC(=O)c2cn(C)c(=O)c3ccccc23)cc1`, inactive: 94%; under `CC1Cc2ccccc2N1C(=O)CSc1nnnn1Cc1ccccc1` (stereo not given), inactive: 91%. As for `CCOc1ccc2nc(NC3=NCCC(=O)N3)nc(C)c2c1`, the survival is inactive: 109%. Under `Cc1cccc(N2CCN(C(=O)CCNS(=O)(=O)c3ccc4c(c3)CCN4C(=O)C3CC3)CC2C)c1` (stereo not given) stands inactive: 70%; under `O=C(NC1CC(=O)N(c2ccccc2)C1)c1cccs1` (stereo not given), inactive: 73%; under `c1ccc(CNc2ncnc3[nH]ncc23)cc1`, inactive: 101%.

Turning to `CCOC(=O)N1CCc2c(sc3c2c(=O)n(CCc2ccccc2)c(=O)n3Cc2ccc(C)cc2C)C1`, the survival was inactive: 77%. As to `COc1ccc(-c2nc(CCNC(=O)Cc3ccc(F)cc3)cs2)cc1`, the survival is inactive: 134%.

Turning to `Cc1ccc2[nH]c3nc(NN)nnc3c2c1`, the survival is inactive: 121%.

Take `Cc1cccc(C(=O)Nc2nc3c(s2)CCCC3)c1`: the survival is inactive: 75%. To `CCOCCc1nn2c(=O)cc(COC(=O)c3ccccc3NC(=O)c3cccs3)nc2s1` belongs inactive: 49%; to `CSc1ccc(CCNC(=O)c2ccc3c(c2)nc2n3CCC(C)C2)cc1` (stereo not given), inactive: 75%. Regarding `COc1ccc(N2CCN(C(=O)c3c(C)nn(-c4ccc(F)cc4)c3-n3cccc3)CC2)cc1`, the survival is inactive: 68%. On to `CCc1ccccc1NC(=O)N1CC(CC)Oc2ccc(Cl)cc21` (stereo not given), for which the survival was inactive: 81%.

With `CC1CCN(c2oc(-c3cccs3)nc2S(=O)(=O)c2ccc(Cl)cc2)CC1`, the survival was active: -8%. As for `Cc1ccc(CNC(=O)c2ccc(-n3c(C)cc4c3CCCC4)cc2)cc1`, the survival is inactive: 71%. Under `C/C(=N/NC(N)=S)c1ccc(Br)s1` stands inactive: 120%; under `COc1cc(OC)c(NC(=O)CSc2nccn2C)cc1Cl`, inactive: 75%. To `O=C(CSc1nc2cc(C(=O)NC3CCCC3)ccc2c(=O)n1CC1CCCO1)c1ccc(F)cc1` (stereo not given) belongs inactive: 70%; to `CNC(=O)c1ccc2c(c1)N=C(C)c1cc(C)ccc1S2`, inactive: 80%; to `Cc1ccc(C)c(S(=O)(=O)c2cn(Cc3ccccc3)c3cc(F)c(F)cc3c2=O)c1`, inactive: 83%.

For the molecule `Cc1ccc(OCC(=O)Nc2ccc3nc(SCC(=O)N4CCCC4)sc3c2)cc1`, the survival is inactive: 91%. With `CCOC(=O)c1c(SCC(=O)Nc2nc3ccc(C)cc3s2)nc(=O)[nH]c1C`, the survival was inactive: 81%. With `COc1ccc(Cn2nnnc2CN2CCN(C)CC2)cc1`, the survival was inactive: 105%. Under `CC1=CC(C)C(/C=N/N=C(N)N)C(C)C1` (stereo not given) stands inactive: 92%.

`CCCC(=O)OC1=CN(Cc2ccccc2)S(=O)(=O)c2ccccc21`: the survival was inactive: 81%. Under `O=C(Cn1cc(SCc2cccc(F)c2)c2ccccc21)N1CCOCC1` stands inactive: 88%; under `CN1C(=O)N(C)C2C1N(C)S(=O)(=O)N2C` (stereo not given), inactive: 97%.

For `Cc1cc(C)c2sc(N(Cc3cccnc3)C(=O)CCS(=O)(=O)c3ccccc3)nc2c1`, the survival was inactive: 67%. Take `Cc1cccc(CSc2cn(CC(=O)N3CCCCC3)c3ccccc23)c1`: the survival was inactive: 82%. As to `CC(C)(C)C1CCc2oc3ccc(NS(=O)(=O)c4cc(Cl)ccc4Cl)cc3c2C1` (stereo not given), the survival is inactive: 122%. Consider `O=C(c1cc(-c2ccc(Br)cc2)n[nH]1)N1CCN(S(=O)(=O)c2ccc(Br)cc2)CC1`, for which the survival was inactive: 71%.

On to `CCC(=O)N1N=C(c2ccc(OC)cc2)CC1c1cn(-c2ccccc2)nc1-c1cccs1` (stereo not given), for which the survival is inactive: 130%. On to `COc1ccccc1N(CC(=O)NCCSCc1ccccc1Cl)S(C)(=O)=O`, for which the survival was inactive: 67%. To `CC1(C)CC(N=CC2=C(O)c3ccccc3C2=O)CC(C)(C)N1` belongs inactive: 109%; to `CCOC(=O)c1cnc2ccc(C)cc2c1Nc1ccc(OCc2ccccc2Cl)cc1`, active: 4%; to `O=C(Cn1ccn(-c2ccc(F)cc2)c(=O)c1=O)NCCc1ccccc1`, inactive: 87%.

On to `CC(=O)N1c2ccc(S(=O)(=O)N3CCN(c4ccc(C)cc4C)CC3)cc2CC1C` (stereo not given), for which the survival is inactive: 81%. Under `CCOc1ccc(N(c2nc(-c3ccc(OC)c(OC)c3)no2)c2nc(-c3ccc(OC)c(OC)c3)no2)cc1` stands inactive: 81%; under `O=C(Nc1ccccc1)N1CCc2ccccc21`, inactive: 107%; under `Cc1oc(-c2cccc(Br)c2)nc1CN1CCC(C(=O)NCCc2ccc(Cl)cc2)CC1`, inactive: 81%.

Turning to `CCOC(=O)c1ccc(N2C(=O)c3n[nH]c(-c4cccs4)c3C2c2cccc(F)c2)cc1` (stereo not given), the survival is inactive: 51%.

As for `CCOc1ccccc1NC(=O)C(CC(C)C)NS(=O)(=O)c1ccc2c(c1)CCN2C(C)=O` (stereo not given), the survival is inactive: 72%. With `S=c1n(CN2CCCCC2)c2ccccc2n1CN1CCCCC1`, the survival was inactive: 90%.

`CCc1ccc(NC(=O)CC2C(=O)OCCN2CC)cc1` (stereo not given): the survival is active: -15%. Under `CC(C)CNC(=O)CCSc1nc(-c2ccc3c(c2)OCO3)cc(C(F)(F)F)n1` stands inactive: 88%; under `CCc1ccccc1NC(=O)Cn1ncc2c(C)n(Cc3ccccc3F)c(C)c2c1=O`, inactive: 90%. As for `Cc1ccc(C)c(N2CCN(c3ccc(NC(=O)c4cccs4)cc3C(=O)O)CC2)c1`, the survival was inactive: 131%. Under `O=C(Cn1c(=O)n(Cc2nc(-c3ccccc3)no2)c(=O)c2cc3c(cc21)OCO3)Nc1ccc(Cl)cc1` stands inactive: 82%. To `OC1CCN(Cc2nnnn2Cc2ccccc2)CC1` belongs inactive: 108%; to `CCN(CC)CCCNC(=O)c1c(C)oc2ncn(CC(C)C)c(=O)c12`, inactive: 81%. Under `Cn1c(=O)n(C)c2cc(NS(=O)(=O)c3ccc(Br)cc3)c(NCc3ccccc3)cc21` stands inactive: 70%; under `CCc1ccc(-n2nc(C)c3c(C)cc(=O)n(CC(=O)Nc4ccc(C)c(F)c4)c32)cc1`, inactive: 136%; under `CCOc1ccc(-n2c(=O)c3c(C)c(C)sc3n(CC(=O)c3ccccc3)c2=O)cc1`, inactive: 146%. Take `CN(C)c1ccc(NC(=O)CCSc2nc(-c3ccco3)cc(C(F)(F)F)n2)cc1`: the survival is inactive: 84%. Under `CCNc1nnc(-c2ccccc2)s1` stands inactive: 114%; under `CC1CCc2c(sc(NC(=O)CCCOc3ccc(C(C)(C)C)cc3)c2C(N)=O)C1` (stereo not given), inactive: 79%. For `COc1cc(Br)c(C2CC(=O)Nc3cc(OC)c(OC)c(OC)c32)cc1OC` (stereo not given), the survival is inactive: 94%. Under `COCCCNC(=O)c1cc2c(=O)n3cccc(C)c3nc2s1` stands inactive: 94%; under `Cc1c(C)n(Cc2ccc(Cl)cc2)c2ccc(C(=O)NCCc3ccc(S(N)(=O)=O)cc3)cc12`, inactive: 127%. Turning to `Nc1c(-c2nc(-c3ccc(Cl)cc3)cs2)c2ccccn2c1C(=O)c1ccc2c(c1)OCO2`, the survival was inactive: 105%. Under `CCCCc1nc2ccccc2n2c(-c3ccc(C)cc3)c3c(=O)n(C)c(=O)n(C)c3c12` stands inactive: 67%.

These data come from PubChem BioAssay AID463173 (ICCB-Longwood Screening Facility, Harvard Medical School, 2010).
